Experimental data from PubChem BioAssay AID1745845 (National Center for Advancing Translational Sciences (NCATS), 2022).
Where “and” joins values, the source holds several entries; their conditions need not be identical. Identical values can stand only once. Among all 360,000 compounds or so, about 2,600 (0.72%) were called active. This list was built around the results that the source calls inconclusive (neither active nor inactive); the mix of calls is not that of the screen. Calls come from the whole dose curve; as a rule, active = well fitted inhibition curve with a large enough effect; inconclusive = small, poorly fitted or top-dose-only effect; inactive = no such curve, though single readings can be large or run the other way. Potencies of inconclusive entries are doubtful fits and often do not repeat.

Experiment: Primary qHTS for Inhibitors of ATXN expression; note: nearly all actives have a fitted effect of over 55% in size
Settings: HEK-293 ATXN2-luciferase reporter, luminescence, 24 h; activity change, negative = inhibition: at 57 µM (top of the series)
Summary of the method: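 ATXN2-luciferase reporter cells (luciferase flanked by upstream and downstream ATXN2 gene portions) were treated 24 h at 37 °C with compounds at up to 57 uM. SteadyGlo luminescence gave expression; GF-AFC fluorescence gave viability.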
% is set by controls: 0 for no effect and ±100 for the full control effect; potency is the fitted concentration of half-maximal effect; tags give direction and shape of the fitted curve.

| Structure (SMILES) | Potency | activity change, negative = inhibition |
| --- | --- | --- |
| COc1cccc2c1C(=O)c1c(O)c3c(c(O)c1C2=O)C[C@@](O)(C(=O)CO)CC3OC1CC(N2CCOC(OC)C2)C(O)C(C)O1 (stereo not given in full) | active: 28.2 µM | – |
| O=c1[nH]c2ccccc2n1C1CCN(C(c2cccc3ccccc23)c2nnnn2Cc2ccccc2)CC1 (stereo not given) | inconclusive: 15.8 µM [inhibitor, partial curve] | – |
| O=C(O)C1C2c3ccccc3C(O)C1(C(=O)O)c1ccccc12 (stereo not given) | inactive | – |
| Cn1c(O)c(C=Nc2ccccc2)c(=O)n(C)c1=O | inactive | – |
| O=C(c1ccccc1)C(CN1CCCC1)c1ccccc1 (stereo not given) | inconclusive: 39.8 µM [inhibitor, single point] | – |
| COc1ccc(C(=O)C2CCCN(Cc3cccc(C)n3)C2)c(OC)c1 (stereo not given) | inactive | – |
| COc1ccc(Cc2nccc3cc(OC)c(OC)cc23)cc1OC | inconclusive: 27.3 µM [inhibitor, single point] | – |
| CC1OC(OC2C(O)CC(OC3C(O)CC(OC4CCC5(C)C(CCC6C5CCC5(C)C(C7=CC(=O)OC7)C(O)CC65O)C4)OC3C)OC2C)CC(O)C1O (stereo not given) | active: 0.316 µM | – |
| Cc1cccc(C)c1-n1nnnc1C(c1cccc2ccccc12)N1CCC(n2c(=O)[nH]c3ccccc32)CC1 (stereo not given) | inactive | – |
| O=C(N/N=C/c1c(O)n(CCC2=CCCCC2)c(=S)[nH]c1=O)c1ccccc1 | inconclusive: 39.8 µM [inhibitor, partial curve, poor fit] | – |
| C[C@H](CN1CCOCC1)C(C(=O)N1CCCC1)(c1ccccc1)c1ccccc1 | inconclusive: 39.8 µM [inhibitor, full curve] | – |
| COc1ccccc1CCNC1CCC(C(C)(C)C)CC1 (stereo not given) | inconclusive: 20 µM [inhibitor, partial curve, poor fit] | – |
| CCN1/C(=C\C=C\C2=[N+](CC)c3ccccc3C2(C)C)C(C)(C)c2ccccc21 | inconclusive: 1.12 µM [inhibitor, full curve, poor fit] | – |
| Oc1c(Cl)cccc1Cc1cc(Cl)cc(Cl)c1O | inconclusive: 25.1 µM [inhibitor, partial curve, poor fit] | – |
| CC1CCC(C(C)C)C(OC(=O)Cn2c(COc3ccccc3)[n+](C)c3ccccc32)C1 (stereo not given) | inconclusive: 22.4 µM [inhibitor, single point] | – |
| O=C(N/N=C/C1C(=O)NC(=S)N(c2ccccc2)C1=O)c1cc(Br)c(O)c(Br)c1 (stereo not given) | inactive | – |
| O=C(c1ccc(-c2ccccc2)c(F)c1)C1CCCN(CCO)C1 (stereo not given) | inactive | – |
| C=C1N2CCC(CC2)C1(O)c1ccccc1C (stereo not given) | inconclusive: 39.8 µM [inhibitor, single point] | – |
| CCn1c(O)c(C=Nc2ccc(N3CCOCC3)cc2)c(=O)n(CC)c1=S | inconclusive: 31.6 µM [inhibitor, single point] | – |
| COc1ccc(Br)cc1C1SCC(=O)Nc2c1c(C)nn2-c1ccccc1C (stereo not given) | inconclusive: 20 µM [inhibitor, single point] | – |
| CCCC1=Nc2cc(C(=O)NCCCN(CC)CC)ccc2Sc2ccccc21 | active: 31.6 µM | – |
| COc1ccc(Cn2c(N)c(C(=O)NCc3ccco3)c3nc4ccccc4nc32)cc1OC | inconclusive: 31.6 µM [inhibitor, partial curve, poor fit] | – |
| CCCCCN1C(=O)c2cc(OC)ccc2[C@@]2(C(=O)OCC)Cc3cc(OC)ccc3[C@@H]12 | inconclusive: 6.31 µM [inhibitor, full curve, poor fit] | – |
| C1=NCCc2c1[nH]c1ccccc21 | inconclusive: 25.1 µM [inhibitor, partial curve, poor fit] | – |
| COc1ccc(-n2nnnc2C(CCc2ccccc2)N2CCC3(CC2)C(=O)NCN3c2ccccc2)cc1 (stereo not given) | inconclusive: 22.4 µM [inhibitor, single point] | – |
| CCCCCCCn1c(=O)c(C(=O)Nc2cnccn2)c(O)c2ccccc21 | inconclusive: 5.01 µM [inhibitor, partial curve, poor fit] | – |
| O=c1[nH]c(O)c(N=Nc2ccc(SC(F)F)cc2)c(=O)[nH]1 | inactive | – |
| O=C1NC2C(=CC(O)C(O)C2O)c2cc3c(c(O)c21)OCO3 (stereo not given) | inconclusive: 0.112 µM [inhibitor, full curve, poor fit] | – |

| Structure (SMILES) | Potency | activity change, negative = inhibition |
| --- | --- | --- |
| Cc1ccccc1-[n+]1c(-c2ccccc2)cc(-c2ccccc2)cc1-c1ccccc1 | inconclusive: 7.94 µM [inhibitor, full curve] | – |
| C=C(C)[C@H]1Cc2c(ccc3c2O[C@@H]2COc4cc(OC)c(OC)cc4[C@@H]2C3=O)O1 | inconclusive: 7.08 µM [inhibitor, partial curve, poor fit] and inconclusive: 273 nM [inhibitor, full curve] | – |
| CCOC(=O)c1c(NS(=O)(=O)c2ccccc2)n(CCCOC)c2nc3ccccc3nc12 | inactive | – |
| CC(C)CNC(=O)/C=C/C=C/CCCCCC/C=C/c1ccc2c(c1)OCO2 | inactive | – |
| O=C1NCN(c2ccccc2)C12CCN(C(CCc1ccccc1)c1nnnn1C1CCCC1)CC2 (stereo not given) | inconclusive: 39.8 µM [inhibitor, single point] | – |
| COC1=CC(C)=C[C@@H](C)[C@@H](O)[C@@H](C)CC(C)=CC=C[C@H](OC)[C@H]([C@@H](C)[C@@H](O)[C@H](C)[C@@]2(O)C[C@@H](O)[C@H](C)[C@@H](C(C)C)O2)OC1=O | inconclusive: 0.0031 µM [inhibitor, full curve, poor fit] | – |
| O=C(NN=Cc1ccc(N(CCCl)CCCl)cc1)c1cccnc1 | inconclusive: 2.51 µM [inhibitor, full curve] | – |
| COC(=O)C1=C(c2ccccc2OCc2ccccc2)C[C@@H]2CC[C@H]1N2C(=O)NC1CCN(Cc2ccccc2)CC1 | inconclusive: 39.8 µM [inhibitor, single point] | – |
| COC(=O)C[C@]1(C(=O)OC)CN(C#N)N(c2ccc(Cl)cc2)C12c1ccccc1-c1ccccc12 | active: 3.98 µM | – |
| Cc1ccc(C(=O)N[C@@H](C)CN2C3=NC[C@@H](Cc4ccccc4)N3C[C@H]2Cc2ccc(O)cc2)cc1Br | inconclusive: 25.1 µM [inhibitor, single point] | – |
| COc1ccc(/C=C/C=C2C(=O)NC(=S)NC2=O)cc1 | inconclusive: 39.8 µM [inhibitor, single point] | – |
| Cc1ccccc1-n1nc(C)c2c1NC(=O)CSC2c1ccc(Cl)cc1 (stereo not given) | inconclusive: 39.8 µM [inhibitor, single point] | – |
| O=C(c1ccc(Cl)cc1)C1CCCN(Cc2cccc3cccnc23)C1 (stereo not given) | inconclusive: 25.1 µM [inhibitor, single point] | – |
| O=c1[nH]c2ccccc2n1C1CCN(Cc2ccc(-c3nc4ccc(F)cc4nc3-c3ccccc3)cc2)CC1 | inconclusive: 25.1 µM [inhibitor, partial curve, poor fit] | – |
| O=C(c1cccc(Cl)c1)C1CCCN(Cc2cccc3cnccc23)C1 (stereo not given) | inconclusive: 35.5 µM [inhibitor, single point] | – |
| O=[N+]([O-])c1ccc2c(c1)C(c1ccccc1)=NCCN2 | – | inconclusive: -46.6% [inhibitor] |
| C=C(C=O)CC1CC(O)[C@]2(C)OC3CC4OC5C[C@]6(C)O[C@]7(C)CCC8OC9C[C@]%10(C)OC%11C(C)=CC(=O)OC%11CC%10OC9C[C@@H](C)C8OC7CC6O[C@]5(C)CC5OC5C4OC3CC2O1 (stereo not given in full) | inconclusive: 0.891 µM [inhibitor, full curve, poor fit] | – |
| O=c1[nH]c(=S)n(CCC2=CCCCC2)c(O)c1/C=N/Nc1ccccc1 | inconclusive: 14.1 µM [inhibitor, single point] | – |
| C[C@](O)(COc1ccc(C#N)cc1)C(=O)Nc1ccc(C#N)c(C(F)(F)F)c1 | inconclusive: 27.3 µM [inhibitor, partial curve, poor fit] | – |
| O=C1NCN(c2ccccc2)C12CCN(C(CCc1ccccc1)c1nnnn1C1CCCCC1)CC2 (stereo not given) | inconclusive: 39.8 µM [inhibitor, single point] | – |
| CC=C(C)C(=O)N[C@@H](c1ccccc1)[C@@H](O)C(=O)O[C@H]1C[C@@]2(O)[C@@H](OC(=O)c3ccccc3)[C@@H]3[C@]4(OC(C)=O)CO[C@@H]4C[C@H](O)[C@@]3(C)C(=O)[C@H](OC(C)=O)C(=C1C)C2(C)C | inconclusive: 0.0069 µM [inhibitor, partial curve, poor fit] | – |
| S=C(NCCc1ccccc1)N1Cc2ccc(Br)cc2-n2nncc2C1 | inconclusive: 35.5 µM [inhibitor, single point] | – |
| C[C@H]1CC[C@@H]2[C@@H](C)[C@H]3[C@H](C[C@H]4[C@@H]5CC=C6C[C@@H](O[C@@H]7O[C@H](CO)[C@H](O)[C@H](O[C@@H]8O[C@H](CO)[C@@H](O)[C@H](O)[C@H]8O)[C@H]7O[C@@H]7O[C@@H](C)[C@H](O)[C@@H](O)[C@H]7O)CC[C@]6(C)[C@H]5CC[C@]34C)N2C1 | inconclusive: 31.6 µM [inhibitor, single point] | – |
| COc1ccc(NC(=O)CCc2nc(C3=CCN(Cc4cccc(Cl)c4)CC3)no2)c(OC)c1 | inconclusive: 15.8 µM [inhibitor, partial curve, poor fit] | – |
| C/C(=C\c1ccc(N(C)C)cc1)[N+](=O)[O-] | active: 31.6 µM | – |
| O=C1NC(=O)C(=Cc2cn(CCOc3ccc4c(c3)OCO4)c3ccccc23)C(=O)N1 | inconclusive: 35.5 µM [inhibitor, single point] | – |
| C=C1C(=O)O[C@H]2[C@H]1[C@H](OC(=O)CC(=O)O[C@@H]1C[C@@H](C)[C@@H]3C=CC(=O)[C@@]3(C)[C@H]3OC(=O)C(=C)[C@H]13)C[C@@H](C)[C@H]1C=CC(=O)[C@]12C | inconclusive: 35.5 µM [inhibitor, single point] | – |
